Common to all, as to assay: Primary Screen for Target Class Profiling of Small Molecule Inhibitors of Methyltransferases
The target in test [1] is Glycine N-methyltransferase (Homo sapiens) (UniProt Q14749). Particulars: purified enzyme, MTase-Glo SAH luminescence; measured here: GNMT inhibition; at 40 µM; stronger effect = lower value. The method, boiled down: (§1)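 Each enzyme was reacted with SAM and its substrate, with compounds tested once at 40 uM; SAH formed was read by MTase-Glo luminescence.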
Test [2] has as its target Guanidinoacetate N-methyltransferase (Homo sapiens) (UniProt Q14353). Particulars: purified enzyme, MTase-Glo SAH luminescence; measured here: GAMT inhibition; at 40 µM; stronger effect = lower value. A digest of the protocol:
as §1

Test [3] has as its target Histamine N-methyltransferase (Homo sapiens) (UniProt P50135). Particulars: purified enzyme, MTase-Glo SAH luminescence; measured here: HNMT inhibition; at 40 µM; stronger effect = lower value. A digest of the protocol: as §1
The target of test [4] is Nicotinamide N-methyltransferase (Homo sapiens) (UniProt P40261). To be noted: purified enzyme, MTase-Glo SAH luminescence; measured here: NNMT inhibition; at 40 µM; stronger effect = lower value. A digest of the protocol: as §1
The target of test [5] is Phenylethanolamine N-methyltransferase (Homo sapiens) (UniProt P11086). Particulars: purified enzyme, MTase-Glo SAH luminescence; measured here: PNMT inhibition; at 40 µM; stronger effect = lower value. The method, boiled down:
as §1

Data on 36 compounds can be found in PubChem BioAssay AID1745853 (National Center for Advancing Translational Sciences (NCATS), 2022).

SMILES strings stand for the structures. This is one part of the list. The main result of the screen is listed elsewhere. These columns were measured beside it and carry no call.
% is set by controls: 0 for no effect and ±100 for the full control effect.

For `CCCN1C(=O)c2c(C(=O)NCc3ccccc3OCC)ncn2CC1(C)C(=O)NCc1ccc(OC)cc1` (stereo not given), the activity change, negative = inhibition in test [1] is -1.09%; in test [2], 0%; in test [3], 2.56%; in test [4] it was 7.15%; in test [5], 8.59%.

As for `Cc1ccc(CCNC(=O)CCc2nnc3n(Cc4ccc(F)cc4)c(=O)c4ccccc4n23)cc1`, the activity change, negative = inhibition was -10.4% in test [1]; 4.04% in test [2]; -1.96% in test [3]; -12% in test [4]; -2.62% in test [5].

`Cn1c(=O)n(C)c2cc(S(=O)(=O)Nc3cccc(C(F)(F)F)c3)ccc21`: the activity change, negative = inhibition in test [1] was -3.31%; in test [2], 2.8%; in test [3], 2.87%; in test [4], 5.41%; in test [5], -2.42%.

For `C=C1CC2OC(=O)C(=C)C2C(OC(=O)/C(C)=C\C)CC2(C)OC1=CC2=O` (stereo not given), the activity change, negative = inhibition in test [1] was 3.16%; in test [2] it was 7.96%; in test [3], 8.97%; in test [4] it was -1.85%; in test [5] it was 8.72%.

In the case of `N#Cc1cccc(-c2cn3c(n2)N(C(=O)c2ccccc2F)CCC3)c1`, the activity change, negative = inhibition in test [1] was -6.13%; in test [2], -1.15%; in test [3] it was -26.9%; in test [4] it was -12.6%; in test [5], -4.19%.

Regarding `COc1cc(C2Oc3c(O)cc(CCCO)cc3C2CO)ccc1O[C@H]1O[C@H](C)[C@@H](O)[C@H](O)[C@@H]1O` (stereo not given in full), the activity change, negative = inhibition is 1.09% in test [1]; 9.3% in test [2]; 7.84% in test [3]; -4.4% in test [4]; 6.76% in test [5].

In the case of `COc1coc(C(=O)NCCC2CN(c3cnn(C)c(=O)c3)CCO2)cc1=O` (stereo not given), the activity change, negative = inhibition in test [1] was -4.67%; in test [2], -6.96%; in test [3], -2.98%; in test [4], -12.1%; in test [5], -4.77%.

In the case of `Cc1ccc(CN2C(=O)c3c(-n4cccc4)c4cc(C)ccc4n3CC2(C)C(=O)NC2CCC(C)CC2)cc1` (stereo not given), the activity change, negative = inhibition in test [1] is -2.15%; in test [2], -6.85%; in test [3] it was 3.53%; in test [4], -2.55%; in test [5], 1.99%.

`O=C(NCCc1ccccn1)c1ccc(OC2CCNCC2)nc1`: the activity change, negative = inhibition was -1.34% in test [1]; -2.23% in test [2]; 1.62% in test [3]; 0.808% in test [4]; 1.5% in test [5].

On to `COc1ccc(OC)c(CNS(=O)(=O)c2ccc3[nH]c(=O)[nH]c3c2)c1`, for which the activity change, negative = inhibition in test [1] stood at 15.7%; in test [2] it was 2.79%; in test [3], 11.9%; in test [4], 6.62%; in test [5], 6.1%.

Take `Cc1ccc(CN2CC(N(CC3CC3)C3CCOCC3)C2)cc1`: the activity change, negative = inhibition in test [1] is -1.27%; in test [2], -0.53%; in test [3], 1.86%; in test [4] it was -1.28%; in test [5], 0.8%.

On to `COc1ccccc1CNC(=O)C1c2c(n(C)c3ccccc23)SCC(=O)N1c1ccc(F)cc1` (stereo not given), for which the activity change, negative = inhibition in test [1] was 5.12%; in test [2], 0.332%; in test [3] it was -2.34%; in test [4], -4.91%; in test [5] it was 0.833%.

Take `CC1(C(=O)NCc2ccccc2)Cc2ccccc2C(=O)N1Cc1cccc(Cl)c1` (stereo not given): the activity change, negative = inhibition is 0.648% in test [1]; 2.01% in test [2]; 0.66% in test [3]; -2.31% in test [4]; -2.45% in test [5].

For the compound `CCOC(=O)c1cc2n(n1)CC(C)(C(=O)NCc1ccccc1)N(c1ccc(F)cc1)C2=O` (stereo not given), the activity change, negative = inhibition in test [1] was -0.657%; in test [2], 4.37%; in test [3] it was 0.729%; in test [4] it was 0.234%; in test [5] it was -0.515%.

As to `C=C(C(=O)OC)C1C(O)CC2(C)C(O)CCC(=O)C2C1O` (stereo not given), the activity change, negative = inhibition was -5.27% in test [1]; -2.02% in test [2]; 6.23% in test [3]; -15.7% in test [4]; -11.4% in test [5].

Take `O=C(NCc1ccc2c(c1)OCO2)c1ccc2c(=O)nc3c(-c4ccccc4)n[nH]n3c2c1`: the activity change, negative = inhibition in test [1] was -5.97%; in test [2], 0%; in test [3], 5.48%; in test [4], 2.03%; in test [5] it was -0.139%.

Regarding `CC(C)n1cnc2c(NCCc3ccc(O)cc3)nc(-c3csc4ccccc34)nc21`, the activity change, negative = inhibition is 0.535% in test [1]; -6.26% in test [2]; -2.67% in test [3]; -21.7% in test [4]; -4.98% in test [5].

For the compound `CC1(C(=O)NC2CCCC2)Cn2c(ccc2-c2ccco2)C(=O)N1c1ccc(Cl)cc1` (stereo not given), the activity change, negative = inhibition in test [1] was -4.47%; in test [2] it was 1.45%; in test [3] it was -0.492%; in test [4] it was 1.9%; in test [5] it was -2.31%.

For `CCCn1c(=O)c2ccc(C(=O)NCC(C)C)cc2n2c(SCC(=O)Nc3cc(C)cc(C)c3)nnc12`, the activity change, negative = inhibition in test [1] was 2.7%; in test [2] it was 0%; in test [3], 6.12%; in test [4], -6.81%; in test [5], 5.33%.

As for `CCCn1c(=O)c2ccc(C(=O)NCC(C)C)cc2n2c(SCC(=O)Nc3ccccc3F)nnc12`, the activity change, negative = inhibition in test [1] was 1.75%; in test [2], 4.9%; in test [3], 2.37%; in test [4], -8.52%; in test [5], -1.66%.

Consider `Cc1ccccc1NC(=O)CSc1nnc2n(C)c(=O)c3ccc(C(=O)NC4CCCC4)cc3n12`, for which the activity change, negative = inhibition is -3.62% in test [1]; 2.97% in test [2]; -2.96% in test [3]; -5.56% in test [4]; -0.729% in test [5].

As for `N#Cc1cccc(C(=O)N2CCCCC2CCn2cc(-c3ccccc3)nn2)c1` (stereo not given), the activity change, negative = inhibition in test [1] was -7.22%; in test [2] it was -11.9%; in test [3], -4.13%; in test [4], -10.3%; in test [5], -6.79%.

As to `CCC(C)NC(=O)c1ccc2c(=O)n(CCC(C)C)c3nn(CC(=O)c4ccc(OC)cc4)c(=O)n3c2c1` (stereo not given), the activity change, negative = inhibition in test [1] stood at 1.87%; in test [2], 0%; in test [3], 7.21%; in test [4] it was 0.776%; in test [5], 1.72%.

In the case of `COC(=O)C1=CO[C@@H](O[C@@H]2O[C@H](CO[C@@H]3O[C@H](COC(=O)/C=C/c4cc(OC)c(O)c(OC)c4)[C@@H](O)[C@H](O)[C@H]3O)[C@@H](O)[C@H](O)[C@H]2O)[C@@H]2C(CO)=CC[C@H]12`, the activity change, negative = inhibition in test [1] is 5.16%; in test [2] it was 4.96%; in test [3], 13.8%; in test [4] it was -9.66%; in test [5], 7.71%.

Turning to `Cc1ccc(CNC(=O)Cn2nc3n(C)c(=O)c4ccc(C(=O)NCC(C)C)cc4n3c2=O)cc1`, the activity change, negative = inhibition was 3.56% in test [1]; 0.015% in test [2]; 4.96% in test [3]; 3.93% in test [4]; 5.81% in test [5].

Regarding `O=C(O)CCNS(=O)(=O)c1ccc2[nH]c(=O)[nH]c2c1`, the activity change, negative = inhibition in test [1] came out at 1.55%; in test [2] it was 0%; in test [3] it was 9.44%; in test [4], 11.5%; in test [5], 2.31%.

Consider `CCCCN1C(=O)c2cc(C(=O)Nc3ccc(C)cc3Cl)nn2CC1(C)C(=O)NC1CCCC1` (stereo not given), for which the activity change, negative = inhibition is 2.79% in test [1]; 0.6% in test [2]; -10.1% in test [3]; 4.13% in test [4]; 2.77% in test [5].

Regarding `COc1ccc(C2(O)c3ccccc3NC(=O)C2OC)cc1` (stereo not given), the activity change, negative = inhibition in test [1] is 3.24%; in test [2], 2.63%; in test [3], 6.95%; in test [4], -10.5%; in test [5], 1.45%.

Turning to `COc1ccc(N(C(=O)c2ccccc2F)S(=O)(=O)c2ccc3c(c2)n(C)c(=O)n3C)cc1`, the activity change, negative = inhibition in test [1] was -2.07%; in test [2], 3.71%; in test [3] it was -0.655%; in test [4], 0.46%; in test [5], -1.51%.

Consider `CC1OC(OC2C(C)OC(OC3C(O)C(CO)OC(O[C@H]4CC[C@@]5(C)C(CC[C@]6(C)C5CC=C5C7[C@@H](C)[C@H](C)CC[C@]7(C(=O)O)CC[C@]56C(=O)O)C4(C)C)C3O)C(O)C2O)C(O)C(O)C1O` (stereo not given in full), for which the activity change, negative = inhibition in test [1] was -2.1%; in test [2], -1.99%; in test [3], 1.93%; in test [4], -13.8%; in test [5], 1.92%.

With `CCc1ccccc1N1C(=O)c2cc(-c3ccc(OC)cc3)nn2CC1(C)C(=O)NCc1ccccc1` (stereo not given), the activity change, negative = inhibition is 2.33% in test [1]; 1.08% in test [2]; 2.19% in test [3]; 4.36% in test [4]; -4.57% in test [5].

`Cc1ccccc1N1C(=O)c2cc3sccc3n2CC1(C)C(=O)NC1CCCCC1C` (stereo not given): the activity change, negative = inhibition was 1.78% in test [1]; 1.06% in test [2]; 5.48% in test [3]; 1.44% in test [4]; 1.75% in test [5].

As for `CC1(C(=O)NCc2ccc(F)cc2)Cn2cnc(C(=O)NCCc3cccs3)c2C(=O)N1C1CC1` (stereo not given), the activity change, negative = inhibition turned out to be 3.08% in test [1]; 2.44% in test [2]; 14.4% in test [3]; 4.74% in test [4]; 9.56% in test [5].

For the compound `O=C(NNc1ccccc1)c1ccncc1`, the activity change, negative = inhibition in test [1] is 5.67%; in test [2] it was 6.25%; in test [3], 10.9%; in test [4] it was -1.81%; in test [5], 8.08%.

As for `Cc1cccc(C(=O)Nc2ccc3c(c2)C(=O)N(C)C2=NCCN23)c1`, the activity change, negative = inhibition was -10.4% in test [1]; -5.47% in test [2]; -6.05% in test [3]; -8.25% in test [4]; -11.5% in test [5].

Consider `CN(CC1CCOCC1)C(=O)c1ccsc1`, for which the activity change, negative = inhibition is -0.149% in test [1]; -0.855% in test [2]; 3.31% in test [3]; -1.81% in test [4]; -1.25% in test [5].
